Measured values: PMC5700166
The list shows a part of the results, in another mix than the full data. The list includes weakly bound sequences.

Assays:
Assay in all cases: protein-binding microarray (PBM)
Conditions in all cases: PBM: ~300 nM protein, 6 mM HEPES pH 7.8, 80 mM KCl, 0.5 mM EDTA, 0.5 mM EGTA, 6% glycerol, 35 ng/ul poly-dIdC, 1% milk, 1 h, room temperature; Ap Aiptasia and Nv Nematostella (sea anemones) / Co Capsaspora / Aq Amphimedon (sponge) / Dm Drosophila / Hu human; RHD is the Rel homology domain; high values mean tight binding; most listed sequences are background and not binding sites; double strand, one strand shown
GST-Ap-NF-kB RHD = target: T1, GST-Ap-NF-kB RHD (UniProt A0A913YAJ5)
T1 sequence: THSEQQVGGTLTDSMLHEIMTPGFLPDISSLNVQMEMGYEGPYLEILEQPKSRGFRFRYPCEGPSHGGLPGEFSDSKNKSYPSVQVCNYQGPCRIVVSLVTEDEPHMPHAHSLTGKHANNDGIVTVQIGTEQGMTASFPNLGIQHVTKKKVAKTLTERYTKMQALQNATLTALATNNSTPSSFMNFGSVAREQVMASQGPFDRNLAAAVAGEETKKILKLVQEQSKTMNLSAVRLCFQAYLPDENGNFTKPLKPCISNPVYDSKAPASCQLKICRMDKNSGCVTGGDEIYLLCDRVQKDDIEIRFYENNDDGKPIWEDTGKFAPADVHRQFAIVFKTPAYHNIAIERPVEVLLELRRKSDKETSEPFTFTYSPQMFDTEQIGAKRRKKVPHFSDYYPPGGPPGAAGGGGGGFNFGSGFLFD

[1] = target: T2, GST-Nv-NF-kB (Cys allele) (UniProt E5G601)
T2 sequence: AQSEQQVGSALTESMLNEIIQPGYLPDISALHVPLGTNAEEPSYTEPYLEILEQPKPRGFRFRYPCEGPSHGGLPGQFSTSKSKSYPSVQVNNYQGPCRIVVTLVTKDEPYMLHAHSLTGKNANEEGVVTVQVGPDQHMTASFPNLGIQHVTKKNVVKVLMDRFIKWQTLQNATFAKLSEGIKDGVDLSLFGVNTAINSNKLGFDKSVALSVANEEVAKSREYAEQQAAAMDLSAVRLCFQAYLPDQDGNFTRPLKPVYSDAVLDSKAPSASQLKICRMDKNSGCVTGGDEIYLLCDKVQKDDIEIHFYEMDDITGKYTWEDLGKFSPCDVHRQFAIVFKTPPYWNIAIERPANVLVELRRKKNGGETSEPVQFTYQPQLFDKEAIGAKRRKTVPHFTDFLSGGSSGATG

GST-Co-NF-kB = target: T3, GST-Co-NF-kB (UniProt F1ARL5)
T3 sequence: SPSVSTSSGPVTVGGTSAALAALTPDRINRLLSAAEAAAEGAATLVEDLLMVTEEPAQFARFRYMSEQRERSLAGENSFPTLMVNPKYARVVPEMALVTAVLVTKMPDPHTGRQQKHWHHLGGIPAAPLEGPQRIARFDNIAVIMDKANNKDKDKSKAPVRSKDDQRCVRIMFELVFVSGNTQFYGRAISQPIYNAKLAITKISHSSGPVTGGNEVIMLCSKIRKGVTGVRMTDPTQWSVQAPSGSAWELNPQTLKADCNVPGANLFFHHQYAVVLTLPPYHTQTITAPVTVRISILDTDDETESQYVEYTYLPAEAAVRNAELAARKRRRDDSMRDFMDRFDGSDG

GST-Dm-Relish = target: T4, GST-Dm-Relish (UniProt Q94527)
T4 sequence: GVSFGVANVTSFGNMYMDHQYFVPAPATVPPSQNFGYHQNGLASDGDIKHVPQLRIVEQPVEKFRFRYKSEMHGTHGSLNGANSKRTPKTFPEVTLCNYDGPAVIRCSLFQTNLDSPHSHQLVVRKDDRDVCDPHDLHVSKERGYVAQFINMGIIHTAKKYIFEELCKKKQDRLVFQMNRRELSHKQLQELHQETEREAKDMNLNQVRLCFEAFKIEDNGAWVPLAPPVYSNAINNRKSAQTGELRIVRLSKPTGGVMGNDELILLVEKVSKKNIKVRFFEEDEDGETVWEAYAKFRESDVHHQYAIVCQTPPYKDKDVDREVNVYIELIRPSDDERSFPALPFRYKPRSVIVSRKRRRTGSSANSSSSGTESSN

GST-Aq-NF-kB = target: T5, GST-Aq-NF-kB (UniProt A9Y5G7)
T5 sequence: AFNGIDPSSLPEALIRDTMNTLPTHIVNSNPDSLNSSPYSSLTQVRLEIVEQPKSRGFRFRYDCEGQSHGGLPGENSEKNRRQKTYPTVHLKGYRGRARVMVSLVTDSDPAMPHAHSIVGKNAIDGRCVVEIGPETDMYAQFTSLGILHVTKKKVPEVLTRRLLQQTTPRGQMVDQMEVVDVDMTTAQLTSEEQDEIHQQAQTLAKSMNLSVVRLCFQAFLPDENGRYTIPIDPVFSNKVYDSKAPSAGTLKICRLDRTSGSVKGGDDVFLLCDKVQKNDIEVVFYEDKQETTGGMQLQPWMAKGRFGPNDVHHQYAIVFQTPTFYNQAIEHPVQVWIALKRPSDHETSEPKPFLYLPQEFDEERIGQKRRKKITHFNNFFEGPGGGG

Row | Sequence | binding signal (GST-Ap-NF-kB RHD) [z-score] | binding signal [1] [z-score] | binding signal (GST-Co-NF-kB) [z-score] | binding signal (GST-Dm-Relish) [z-score] | binding signal (GST-Aq-NF-kB) [z-score]
1 | CCGATTAACATCAAATCCTCCTATGATGTTAATCGGGTCTTGATTCGCTTGACGCTGCTG | 0.149 | 0.326 | 0.128 | -0.43 | -0.218
2 | CCGATTAACATCAAGGATATTCCTGATGTTAATCGGGTCTTGATTCGCTTGACGCTGCTG | -0.714 | -0.0182 | -0.139 | -0.369 | 0.827
3 | CCGATTAACATCAGCGAATTTCCTGATGTTAATCGGGTCTTGATTCGCTTGACGCTGCTG | -0.14 | -0.48 | -0.437 | 0.174 | 0.0909
4 | CCGATTAACATCATCAACACATTTGATGTTAATCGGGTCTTGATTCGCTTGACGCTGCTG | -0.3 | -0.208 | 0.124 | -0.0494 | -0.32
5 | CCGATTAACATCATGGATTAATGTGATGTTAATCGGGTCTTGATTCGCTTGACGCTGCTG | -1 | -0.247 | -0.193 | 0.487 | -0.461
6 | CCGATTAACATCAAATTTCCAGCTGATGTTAATCGGGTCTTGATTCGCTTGACGCTGCTG | 0.0526 | 0.143 | -0.103 | 0.603 | 0.331
7 | CCGATTAACATCACTGCTCAGGATGATGTTAATCGGGTCTTGATTCGCTTGACGCTGCTG | 0.169 | -1.08 | -0.328 | -1.14 | -0.481
8 | CCGATTAACATCAACAAATTTCCTGATGTTAATCGGGTCTTGATTCGCTTGACGCTGCTG | 0.272 | 0.203 | 0.131 | 0.427 | 0.782
9 | CCGATTAACATCACTCAATTACGTGATGTTAATCGGGTCTTGATTCGCTTGACGCTGCTG | -0.712 | 0.416 | 0.112 | 0.422 | -0.765
10 | CCGATTAACATCACCCTCCAATTTGATGTTAATCGGGTCTTGATTCGCTTGACGCTGCTG | 0.621 | 0.127 | 0.765 | 0.384 | 0.597
11 | CCGATTAACATCACCTTTTACATTGATGTTAATCGGGTCTTGATTCGCTTGACGCTGCTG | -0.0214 | 0.114 | 0.0582 | 0.597 | 0.585
12 | CCGATTAACATCATTCAGCTACTTGATGTTAATCGGGTCTTGATTCGCTTGACGCTGCTG | -0.0522 | 0.21 | -0.139 | -0.591 | -0.466
13 | CCGATTAACATCAGATATTTCGATGATGTTAATCGGGTCTTGATTCGCTTGACGCTGCTG | -0.44 | -0.67 | -0.2 | -0.668 | -0.498
14 | CCGATTAACATCACTACGTACCGTGATGTTAATCGGGTCTTGATTCGCTTGACGCTGCTG | -0.065 | -0.00122 | -0.215 | 0.328 | -0.213
15 | CCGATTAACATCATGCACTTGCGTGATGTTAATCGGGTCTTGATTCGCTTGACGCTGCTG | -0.899 | -0.149 | -1.33 | -0.362 | -0.342
16 | CCGATTAACATCATGGTCTCATGTGATGTTAATCGGGTCTTGATTCGCTTGACGCTGCTG | -0.574 | 0.0385 | -0.428 | 0.0801 | -0.379
17 | CCGATTAACATCAAGGAATTACCTGATGTTAATCGGGTCTTGATTCGCTTGACGCTGCTG | 1.08 | 2.06 | -0.0422 | 5.14 | 3.3
18 | CCGATTAACATCAGCCATGGTGATGATGTTAATCGGGTCTTGATTCGCTTGACGCTGCTG | 0.235 | -0.574 | 0.0829 | -0.435 | -0.147
19 | CCGATTAACATCAGCATAAGCAATGATGTTAATCGGGTCTTGATTCGCTTGACGCTGCTG | -0.662 | -1.04 | -1.08 | -0.706 | -0.297
20 | CCGATTAACATCAAACAATTCGATGATGTTAATCGGGTCTTGATTCGCTTGACGCTGCTG | -0.353 | -0.471 | -0.416 | -0.397 | -0.248
21 | CCGATTAACATCAGGTTAGTAGATGATGTTAATCGGGTCTTGATTCGCTTGACGCTGCTG | -0.19 | -0.558 | -0.386 | -0.285 | -0.208
22 | CCGATTAACATCACTTTATAATCTGATGTTAATCGGGTCTTGATTCGCTTGACGCTGCTG | -0.663 | -0.404 | 0.239 | -0.0775 | -0.33
23 | CCGATTAACATCAGCCGCGGCTGTGATGTTAATCGGGTCTTGATTCGCTTGACGCTGCTG | 0.0408 | -0.647 | -0.88 | -0.0977 | -0.375
24 | CCGATTAACATCAAGACACTTGGTGATGTTAATCGGGTCTTGATTCGCTTGACGCTGCTG | -0.419 | -0.468 | -0.23 | 0.692 | -0.38
25 | CCGATTAACATCAGAAATCCTATTGATGTTAATCGGGTCTTGATTCGCTTGACGCTGCTG | -0.604 | 0.235 | -0.247 | 0.421 | -0.0785
